The values that follow come from a collection of fitness landscapes (doi:10.1016/j.celrep.2020.107928).

In all, about 81,000 sequences were measured (“one-hybrid fitness for binding NBS DNA”: median about -0.1, highest 2% from about 0.36 on). The list shows a part of the results.

To fix the notation:
B1: Caulobacter ParB omega fusion; a variant is named by its letters at X, in order, B8GW30 (parent)
chain: MESVVVGEPGMSEGRRGLGRGLSALLGEVDAAPAQAPGEQLGGSREAPIEILQRNPDQPRRTFREEDLEDLSNSIREKGVLQPILVRPSPDTAGEYQIVAGERAWRAAQRAGLKTVPIMVRELDDLAVLEIGIIENVQRADLNVLEEALSYKVLMEKFERTQENIAQTIGKSXSHVANXMRLLXLPDEVQSYLVSGELTAXHARAIAAAADPVALAKQIIEGGLSVRETEALARKAPNLSAGKSKGGRPPRVKDTDTQALESDLSSVLGLDVSIDHRGSTGTLTITYATLEQLDDLCNRLTRGI

In this test the parent is B1. The test can be described thus: one-hybrid fitness for binding NBS DNA (the Noc-binding site; scaled: cognate 1, non-cognate 0); higher = stronger binding. As to conditions: with NBS DNA site. The method in brief: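 Fitness here means the log change in variant-to-wild-type read ratio between plasmids sequenced before and after selection. That scale was set so cognate equals 1 and non-cognate equals 0. The selection was a bacterial one-hybrid screen of Caulobacter ParB libraries, four specificity codons randomised, in E. coli USO carrying a HIS3 reporter with the site 19 bp from the promoter, grown 48 hours at 37°C on M9-minus-histidine with 0.1 mM IPTG and 5 mM 3-AT.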
As for RFHP, the “one-hybrid fitness for binding NBS DNA” value is ≤ 0.2.

For KADT, the “one-hybrid fitness for binding NBS DNA” value is ≤ 0.2.

With ASNS, the “one-hybrid fitness for binding NBS DNA” value was ≤ 0.2.

Consider RAAN, for which the “one-hybrid fitness for binding NBS DNA” value was ≤ 0.2.

As for TQDF, the “one-hybrid fitness for binding NBS DNA” value is ≤ 0.2.

With EGMP, the “one-hybrid fitness for binding NBS DNA” value was ≤ 0.2.

As for ITVV, the “one-hybrid fitness for binding NBS DNA” value was ≤ 0.2.

For GIFL, the “one-hybrid fitness for binding NBS DNA” value is ≤ 0.2.

Take VTNC: the “one-hybrid fitness for binding NBS DNA” value was ≤ 0.2.

With CHPF, the “one-hybrid fitness for binding NBS DNA” value is ≤ 0.2.

Turning to PQLD, the “one-hybrid fitness for binding NBS DNA” value was ≤ 0.2.

Regarding RHIF, the “one-hybrid fitness for binding NBS DNA” value was ≤ 0.2.

PLVY: the “one-hybrid fitness for binding NBS DNA” value was ≤ 0.2.

With VKNR, the “one-hybrid fitness for binding NBS DNA” value was ≤ 0.2.

For YTPG, the “one-hybrid fitness for binding NBS DNA” value was ≤ 0.2.

For the variant YVGR, the “one-hybrid fitness for binding NBS DNA” value was ≤ 0.2.

PYLF: the “one-hybrid fitness for binding NBS DNA” value is ≤ 0.2.

SYSY: the “one-hybrid fitness for binding NBS DNA” value was ≤ 0.2.

Turning to HTVQ, the “one-hybrid fitness for binding NBS DNA” value was ≤ 0.2.

In the case of NHTY, the “one-hybrid fitness for binding NBS DNA” value was ≤ 0.2.

Consider AISA, for which the “one-hybrid fitness for binding NBS DNA” value is ≤ 0.2.

For the variant AGEK, the “one-hybrid fitness for binding NBS DNA” value was ≤ 0.2.

Take IELV: the “one-hybrid fitness for binding NBS DNA” value is ≤ 0.2.

In the case of SMVM, the “one-hybrid fitness for binding NBS DNA” value is ≤ 0.2.

Regarding NFFR, the “one-hybrid fitness for binding NBS DNA” value was ≤ 0.2.

Regarding QRQY, the “one-hybrid fitness for binding NBS DNA” value is 0.521.

For the variant SQES, the “one-hybrid fitness for binding NBS DNA” value is ≤ 0.2.

As for RVTK, the “one-hybrid fitness for binding NBS DNA” value is ≤ 0.2.

In the case of PANW, the “one-hybrid fitness for binding NBS DNA” value is ≤ 0.2.

YPCE: the “one-hybrid fitness for binding NBS DNA” value was ≤ 0.2.

As to DAHF, the “one-hybrid fitness for binding NBS DNA” value was ≤ 0.2.

Turning to AENW, the “one-hybrid fitness for binding NBS DNA” value was ≤ 0.2.

Consider PADV, for which the “one-hybrid fitness for binding NBS DNA” value is ≤ 0.2.

For the variant TFQW, the “one-hybrid fitness for binding NBS DNA” value is ≤ 0.2.

Take VPTM: the “one-hybrid fitness for binding NBS DNA” value is ≤ 0.2.

On to LSCN, for which the “one-hybrid fitness for binding NBS DNA” value was ≤ 0.2.

As to AMAR, the “one-hybrid fitness for binding NBS DNA” value was ≤ 0.2.

For the variant PSWN, the “one-hybrid fitness for binding NBS DNA” value is ≤ 0.2.

As to CRNF, the “one-hybrid fitness for binding NBS DNA” value was ≤ 0.2.

As for SRKI, the “one-hybrid fitness for binding NBS DNA” value is ≤ 0.2.

Take GKST: the “one-hybrid fitness for binding NBS DNA” value is ≤ 0.2.

With KTID, the “one-hybrid fitness for binding NBS DNA” value was ≤ 0.2.

As to CMRS, the “one-hybrid fitness for binding NBS DNA” value was ≤ 0.2.

On to TEAV, for which the “one-hybrid fitness for binding NBS DNA” value is ≤ 0.2.

On to YSPR, for which the “one-hybrid fitness for binding NBS DNA” value was ≤ 0.2.

Take GWAS: the “one-hybrid fitness for binding NBS DNA” value was ≤ 0.2.

With WKNA, the “one-hybrid fitness for binding NBS DNA” value was ≤ 0.2.

Take LTKM: the “one-hybrid fitness for binding NBS DNA” value was ≤ 0.2.

As for PERN, the “one-hybrid fitness for binding NBS DNA” value was ≤ 0.2.

On to TMAL, for which the “one-hybrid fitness for binding NBS DNA” value was ≤ 0.2.

Take TSCW: the “one-hybrid fitness for binding NBS DNA” value was ≤ 0.2.

In the case of PIPQ, the “one-hybrid fitness for binding NBS DNA” value was ≤ 0.2.

In the case of VAGC, the “one-hybrid fitness for binding NBS DNA” value is ≤ 0.2.

For the variant GWSR, the “one-hybrid fitness for binding NBS DNA” value is ≤ 0.2.

In the case of GIGG, the “one-hybrid fitness for binding NBS DNA” value is ≤ 0.2.

Consider LVTM, for which the “one-hybrid fitness for binding NBS DNA” value was ≤ 0.2.

With CLSQ, the “one-hybrid fitness for binding NBS DNA” value was ≤ 0.2.

MMTL: the “one-hybrid fitness for binding NBS DNA” value is ≤ 0.2.

Take QIIM: the “one-hybrid fitness for binding NBS DNA” value is ≤ 0.2.

On to WHRF, for which the “one-hybrid fitness for binding NBS DNA” value was ≤ 0.2.

Consider IPLM, for which the “one-hybrid fitness for binding NBS DNA” value is ≤ 0.2.

Consider PANF, for which the “one-hybrid fitness for binding NBS DNA” value is ≤ 0.2.

On to FASM, for which the “one-hybrid fitness for binding NBS DNA” value is ≤ 0.2.

As for WPLY, the “one-hybrid fitness for binding NBS DNA” value is ≤ 0.2.

For the variant LPWC, the “one-hybrid fitness for binding NBS DNA” value was ≤ 0.2.

In the case of TGKD, the “one-hybrid fitness for binding NBS DNA” value was ≤ 0.2.

With LCSF, the “one-hybrid fitness for binding NBS DNA” value was ≤ 0.2.

As for VDNS, the “one-hybrid fitness for binding NBS DNA” value was ≤ 0.2.

With CVLL, the “one-hybrid fitness for binding NBS DNA” value was ≤ 0.2.

As for DTYC, the “one-hybrid fitness for binding NBS DNA” value was ≤ 0.2.

For the variant TYKF, the “one-hybrid fitness for binding NBS DNA” value was ≤ 0.2.

Take VKIV: the “one-hybrid fitness for binding NBS DNA” value was ≤ 0.2.

As to LTMV, the “one-hybrid fitness for binding NBS DNA” value is ≤ 0.2.

In the case of LLKC, the “one-hybrid fitness for binding NBS DNA” value was ≤ 0.2.

Regarding IGTR, the “one-hybrid fitness for binding NBS DNA” value was ≤ 0.2.

For NNFM, the “one-hybrid fitness for binding NBS DNA” value was ≤ 0.2.

On to RQNG, for which the “one-hybrid fitness for binding NBS DNA” value was ≤ 0.2.

On to EQDC, for which the “one-hybrid fitness for binding NBS DNA” value is ≤ 0.2.

As to CKIP, the “one-hybrid fitness for binding NBS DNA” value was ≤ 0.2.

For DRKN, the “one-hybrid fitness for binding NBS DNA” value was ≤ 0.2.

As for TIRM, the “one-hybrid fitness for binding NBS DNA” value is ≤ 0.2.

As for NYNL, the “one-hybrid fitness for binding NBS DNA” value is ≤ 0.2.

Take HHGT: the “one-hybrid fitness for binding NBS DNA” value is ≤ 0.2.

For the variant TCRA, the “one-hybrid fitness for binding NBS DNA” value is ≤ 0.2.

SCLE: the “one-hybrid fitness for binding NBS DNA” value is ≤ 0.2.

With STFV, the “one-hybrid fitness for binding NBS DNA” value was ≤ 0.2.

Turning to LSHR, the “one-hybrid fitness for binding NBS DNA” value was ≤ 0.2.

Take TIFT: the “one-hybrid fitness for binding NBS DNA” value is ≤ 0.2.

Turning to CGSG, the “one-hybrid fitness for binding NBS DNA” value was ≤ 0.2.

With RETS, the “one-hybrid fitness for binding NBS DNA” value is ≤ 0.2.

Take RGNV: the “one-hybrid fitness for binding NBS DNA” value was ≤ 0.2.

As to KNNF, the “one-hybrid fitness for binding NBS DNA” value is ≤ 0.2.

Consider YQFY, for which the “one-hybrid fitness for binding NBS DNA” value is ≤ 0.2.

In the case of YPQR, the “one-hybrid fitness for binding NBS DNA” value was ≤ 0.2.

As for KCKC, the “one-hybrid fitness for binding NBS DNA” value was ≤ 0.2.

In the case of YSQC, the “one-hybrid fitness for binding NBS DNA” value is ≤ 0.2.

On to RWHG, for which the “one-hybrid fitness for binding NBS DNA” value is ≤ 0.2.

As to FGFR, the “one-hybrid fitness for binding NBS DNA” value is ≤ 0.2.

With RYQE, the “one-hybrid fitness for binding NBS DNA” value was ≤ 0.2.

On to LPSQ, for which the “one-hybrid fitness for binding NBS DNA” value is ≤ 0.2.

In the case of RIPC, the “one-hybrid fitness for binding NBS DNA” value is ≤ 0.2.

Take QQLP: the “one-hybrid fitness for binding NBS DNA” value was ≤ 0.2.

For IALW, the “one-hybrid fitness for binding NBS DNA” value was ≤ 0.2.

On to RAGT, for which the “one-hybrid fitness for binding NBS DNA” value is 0.443.

For the variant KTWY, the “one-hybrid fitness for binding NBS DNA” value is ≤ 0.2.

Regarding NKCG, the “one-hybrid fitness for binding NBS DNA” value is ≤ 0.2.

Turning to RTHK, the “one-hybrid fitness for binding NBS DNA” value was ≤ 0.2.

Regarding SCAW, the “one-hybrid fitness for binding NBS DNA” value was ≤ 0.2.

As to QYAG, the “one-hybrid fitness for binding NBS DNA” value was ≤ 0.2.

RGML: the “one-hybrid fitness for binding NBS DNA” value was ≤ 0.2.

As for DNST, the “one-hybrid fitness for binding NBS DNA” value is ≤ 0.2.

Take GLRY: the “one-hybrid fitness for binding NBS DNA” value is ≤ 0.2.

Turning to ISED, the “one-hybrid fitness for binding NBS DNA” value was ≤ 0.2.

Consider EGDR, for which the “one-hybrid fitness for binding NBS DNA” value was ≤ 0.2.

Turning to AMEM, the “one-hybrid fitness for binding NBS DNA” value was ≤ 0.2.

Take VSTH: the “one-hybrid fitness for binding NBS DNA” value is ≤ 0.2.

For the variant GING, the “one-hybrid fitness for binding NBS DNA” value is ≤ 0.2.

TGVL: the “one-hybrid fitness for binding NBS DNA” value was ≤ 0.2.

YQHS: the “one-hybrid fitness for binding NBS DNA” value is ≤ 0.2.

Turning to QNGT, the “one-hybrid fitness for binding NBS DNA” value is ≤ 0.2.

Consider NPQG, for which the “one-hybrid fitness for binding NBS DNA” value was ≤ 0.2.

For the variant DAKT, the “one-hybrid fitness for binding NBS DNA” value is ≤ 0.2.

As for FRFK, the “one-hybrid fitness for binding NBS DNA” value was ≤ 0.2.

ETHP: the “one-hybrid fitness for binding NBS DNA” value is ≤ 0.2.

In the case of ANRF, the “one-hybrid fitness for binding NBS DNA” value is ≤ 0.2.

As to WHVS, the “one-hybrid fitness for binding NBS DNA” value was ≤ 0.2.

As for LYQH, the “one-hybrid fitness for binding NBS DNA” value was ≤ 0.2.

Regarding PEIS, the “one-hybrid fitness for binding NBS DNA” value is ≤ 0.2.

On to APYE, for which the “one-hybrid fitness for binding NBS DNA” value is ≤ 0.2.

In the case of TIMM, the “one-hybrid fitness for binding NBS DNA” value was ≤ 0.2.

For the variant GVSG, the “one-hybrid fitness for binding NBS DNA” value is ≤ 0.2.

In the case of QPLD, the “one-hybrid fitness for binding NBS DNA” value is ≤ 0.2.

Regarding NCST, the “one-hybrid fitness for binding NBS DNA” value was ≤ 0.2.

Consider TNAF, for which the “one-hybrid fitness for binding NBS DNA” value was ≤ 0.2.

With YTMC, the “one-hybrid fitness for binding NBS DNA” value is ≤ 0.2.

As for LFTC, the “one-hybrid fitness for binding NBS DNA” value is ≤ 0.2.

As for LYAR, the “one-hybrid fitness for binding NBS DNA” value is ≤ 0.2.

With SHFR, the “one-hybrid fitness for binding NBS DNA” value is ≤ 0.2.

In the case of MYPE, the “one-hybrid fitness for binding NBS DNA” value is ≤ 0.2.

In the case of MWRS, the “one-hybrid fitness for binding NBS DNA” value is ≤ 0.2.

Regarding RQSV, the “one-hybrid fitness for binding NBS DNA” value is ≤ 0.2.

Regarding PGTI, the “one-hybrid fitness for binding NBS DNA” value is ≤ 0.2.

On to CYVT, for which the “one-hybrid fitness for binding NBS DNA” value was ≤ 0.2.

Consider CHAS, for which the “one-hybrid fitness for binding NBS DNA” value is ≤ 0.2.

Consider QYWM, for which the “one-hybrid fitness for binding NBS DNA” value is ≤ 0.2.

For the variant QEAT, the “one-hybrid fitness for binding NBS DNA” value is ≤ 0.2.

EICS: the “one-hybrid fitness for binding NBS DNA” value is ≤ 0.2.

Regarding EHEV, the “one-hybrid fitness for binding NBS DNA” value is ≤ 0.2.

Turning to RFGA, the “one-hybrid fitness for binding NBS DNA” value is ≤ 0.2.

In the case of ETGG, the “one-hybrid fitness for binding NBS DNA” value was ≤ 0.2.

For DLEM, the “one-hybrid fitness for binding NBS DNA” value is ≤ 0.2.

Take DCCT: the “one-hybrid fitness for binding NBS DNA” value was ≤ 0.2.

With VSHR, the “one-hybrid fitness for binding NBS DNA” value is ≤ 0.2.
